Results as given in patent publication US20230094463A1, “ANTIBODIES THAT DISRUPT THE INTERACTION OF GAL3 AND INSULIN RECEPTOR OR INTEGRINS AND METHODS OF USE THEREOF” (TrueBinding, Inc., priority 2019, published 2023).
“Also recorded” adds a separate entry of the source. Values belong to the molecule of their own block, whether it stands above or below them.

How the values were obtained:
[1] = target: T1, interaction of Gal3 and INSR (Homo sapiens, UniProt P17931); experiment: ELISA of blocking of Gal3-INSR association by Gal3-binding antibodies
T1 construct: 6-histidine tag (linker-spaced); purchased Acro Biosystems (Gal3); Sino Biological (INSR) GA3-H5129; 11086-H08H
Procedure: Positively scoring wells were evaluated for the ability to block association of Gal3 and INSR. To identify Gal3-targeted antibodies with the ability to block the interaction of Gal3 and INSR, purified Gal3 and INSR proteins were incubated in the presence of Gal3-immunization hybridoma supernatants described above, or without antibody, and protein interaction was evaluated by ELISA. Human Galectin-3 protein (Acro Biosystems, GA3-H5129) was diluted in PBS (Corning, 21-030-CM) to a concentration of 3 μg/ml and added to the wells of a 96-well ELISA plate (Thermo Fisher, 44-2404-21). After incubating the plate at 4° C. overnight, the plate was washed three times with PBST (PBS with 0.05% Tween 20 [VWR, 0777]). The plate was then blocked for an hour with 2% BSA (EMD Millipore, 126609) in PBST at room temperature with gentle rocking. Thereafter, the 2% BSA in PBST was discarded and antibody or inhibitor (3-fold dilutions beginning at 20 μg/ml, 60 μg/ml, or 180 μM) in 2% BSA in PBST was added to the wells. Afterwards, 6 μg/ml of human Insulin Receptor (Sino Biological, 11086-H08H) in 2% BSA in PBST was added to the antibody or inhibitor in the wells in a 1:1 ratio. The plate was incubated for an hour at room temperature with gentle rocking. […] The reaction was stopped with 1M HCl (JT Baker, 5620-02) and read using a plate reader (Molecular Devices) at absorbance of 450 nm.

Galectin-3 = Galectin-3 (Homo sapiens, UniProt P17931); experiment: SPR (BiacoreT200) affinity of monoclonal Gal3 antibodies to Gal3; assay type: binding; conditions: 25° C., 1:1 interaction model
Procedure: To evaluate whether the ability to block Gal3 assembly with INSR was a function of antibody affinity to Gal3, the affinity of monoclonal Gal3 antibodies to Gal3 was evaluated by SPR. Kinetics experiments were performed on BiacoreT200 at 25° C. in high performance mode. Ligand proteins, purified antibodies were captured onto a CM5 chip coupled with anti-human Fc or anti-mouse Fc antibody, three antibodies at a time onto flow cell #2, 3, and 4, respectively, while flow cell #1 was used as reference. The analyte Galectin-3 in HBS-EP buffer was injected over all four flow cells at concentrations of 100, 50, 25, 12.5, 6.25, 3.125 and 0 nM at a flow rate of 30 μL/min. The complex was allowed to associate and dissociate for 240 and 300 seconds, respectively. The surfaces were regenerated with a 30 second injection of 10 mM Glycine pH 1.7 (flow rate 30 μL/min). The data were fit to a simple 1:1 interaction model using the global data analysis option available within BiacoreT200 Evaluation software V2.0.

[2] = target: T2, interaction of GAL3 and ITGb1 (Homo sapiens, UniProt P17931); experiment: ELISA of blocking of the GAL3-ITGb1 interaction; assay type: binding; conditions: antibodies added at 20, 6.6, or 2.2 μg/ml
T2 construct: Sino Biological (ITGb1, purchased) QCB200352; 10587-H08H1
Procedure: To identify GAL3-targeted antibodies with the ability to block the interaction of GAL3 and ITGb1, purified GAL3 and ITGb1 were incubated in the presence (or absence) of various GAL3-targeted or control antibodies, or without antibody, and protein interaction was evaluated by ELISA.
Human GAL3 (TrueBinding, QCB200352) was diluted in PBS (Corning, 21-030-CM) to a concentration of 4 μg/ml and added to the wells of a 96-well ELISA plate (Thermo Fisher, 44-2404-21). After incubating the plate at 4° C. overnight, the plate was washed three times with PBST (PBS with 0.05% Tween 20 [VWR, 0777]) and then blocked for an hour with 2% BSA (EMD Millipore, 126609) in PBST at room temperature with gentle rocking. Recombinant human ITGb1 (Sino Biological, 10587-H08H1) was biotinylated with EZ Link Sulfo-NHS-LC-Biotin (ThermoFisher Scientific, A39257) and desalted using a Zeba Spin Desalting Column (ThermoFisher Scientific, 89882), following the manufacturer's instructions. […] The reaction was stopped with 1M HCl (JT Baker, 5620-02) and read using a plate reader (Molecular Devices) at absorbance of 450 nm. Percent blockade of the GAL3-ITGb1 interaction was calculated as the fraction of signal obtained in the absence of antibody with the background signal subtracted.

T2 sequence (P17931 2-250 limits assumed): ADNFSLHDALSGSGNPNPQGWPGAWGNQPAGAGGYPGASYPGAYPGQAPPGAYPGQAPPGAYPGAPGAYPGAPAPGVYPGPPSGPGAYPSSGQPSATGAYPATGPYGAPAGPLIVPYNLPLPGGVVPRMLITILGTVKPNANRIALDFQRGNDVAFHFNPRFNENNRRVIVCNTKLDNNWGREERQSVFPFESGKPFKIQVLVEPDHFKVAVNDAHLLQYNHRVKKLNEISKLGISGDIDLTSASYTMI
Chain of Galectin-3 (P17931 whole entry): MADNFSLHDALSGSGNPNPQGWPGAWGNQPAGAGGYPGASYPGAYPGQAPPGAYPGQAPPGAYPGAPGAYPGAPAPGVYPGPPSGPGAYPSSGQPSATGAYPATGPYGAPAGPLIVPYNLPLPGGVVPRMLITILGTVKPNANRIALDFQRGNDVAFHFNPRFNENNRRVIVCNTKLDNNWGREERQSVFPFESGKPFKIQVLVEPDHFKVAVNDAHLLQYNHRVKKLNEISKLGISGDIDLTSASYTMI
T1 sequence (P17931 2-250 limits assumed): as the sequence (P17931 2-250 limits assumed) above

- Gal3-INSR blocking activity (in words) [1]: poorly block
- Kd (Galectin-3): 2.53 nM
B1: 9H2.2H1: anti-Gal3 monoclonal antibody (antibody)
heavy: QVQLQQPGAELVGPGSSVKLSCKASGYTFTNYWIHWVKQRPLQGLEWIGNIDPSDSETHYNQKFKDKATLTVDKSSSTAYMQLSSLTSEDSAVYYCARHGYYDYWGQGTTLTVSSASTKGPSVFPLAPCSRSTSESTAALGCLVKDYFPEPVTVSWNSGALTSGVHTFPAVLQSSGLYSLSSVVTVPSSSLGTKTYTCNVDHKPSNTKVDKRV[human IgG4 Fc with S228P (EU numbers) not spelt out]
light: DIVMTQSHKFMSTSVGDRVSITCKASQDVSTAVAWYQQKPGQSPKLLIYWASTRHTGVPDRFTGSGSGTDYTLTISSVQAEDLALYYCQQHYTTPLTFGAGTKLELKRTVAAPSVFIFPPSDEQLKSGTASVVCLLNNFYPREAKVQWKVDNALQSGNSQESVTEQDSKDSTYSLSSTLTLSKADYEKHKVYACEVTHQGLSSPVTKSFNRGEC

B2: 6B3.2D3: anti-Gal3 antibody (antibody)
heavy: QVQLKQSGPGLVQPSQSLSITCTVSGFSLTSYGVHWVRQPPGKGLEWLGVIWSGGSTDYNAAFISRLSISKDNSKSQVFFKMNSLQADDTAIYYCAKGPYDYDLGWFAYWGQGTLVTVSAASTKGPSVFPLAPCSRSTSESTAALGCLVKDYFPEPVTVSWNSGALTSGVHTFPAVLQSSGLYSLSSVVTVPSSSLGTKTYTCNVDHKPSNTKVDKRV[human IgG4 Fc with S228P (EU numbers) not spelt out]
light: SIVMTQTPKFLLVSAGDRVTITCKASQSVSNDVAWYQQKPGQSPKLLIYYASNRYTGVPDRFTGSGYGTDFTFTISTVQAEDLAVYFCQQDYTSPYTFGGGTKLEIKRTVAAPSVFIFPPSDEQLKSGTASVVCLLNNFYPREAKVQWKVDNALQSGNSQESVTEQDSKDSTYSLSSTLTLSKADYEKHKVYACEVTHQGLSSPVTKSFNRGEC
- blocking of the interaction between GAL3 and ITGb1 [2]: no blocking ability; also recorded: do not disrupt
